Measured values published in patent publication US8481501B2 (priority 2004, dated 2013).
Like-named read-outs stand apart in the source and are kept apart here.

Legend:
mu opioid receptor [1] = target: T1, mu opioid receptor (Homo sapiens, UniProt P35372); experiment: biochemical; design: expressed in transfected cells; host or cells: transfected cells; details: for Emax: read-out: mu % stimulation
mu opioid receptor [2] = target: T1, mu opioid receptor; design: expressed in transfected cells; host or cells: transfected cells; details: Table 5, data taken from MacDougall et al., cited from earlier work; for Ki: read-out: Ki μ
mu opioid receptor [3] = target: T1, mu opioid receptor; design: expressed in transfected cells; host or cells: transfected cells; details: cited from earlier work; for μ Emax: Table 6, data from reference 6; for efficacy (Emax) at the μ receptor: value, reference compounds
mu opioid receptor [4] = target: T1, mu opioid receptor; experiment: biochemical
[5] = Table 2, maximal stimulation relative to control

T1 sequence (P35372 whole entry): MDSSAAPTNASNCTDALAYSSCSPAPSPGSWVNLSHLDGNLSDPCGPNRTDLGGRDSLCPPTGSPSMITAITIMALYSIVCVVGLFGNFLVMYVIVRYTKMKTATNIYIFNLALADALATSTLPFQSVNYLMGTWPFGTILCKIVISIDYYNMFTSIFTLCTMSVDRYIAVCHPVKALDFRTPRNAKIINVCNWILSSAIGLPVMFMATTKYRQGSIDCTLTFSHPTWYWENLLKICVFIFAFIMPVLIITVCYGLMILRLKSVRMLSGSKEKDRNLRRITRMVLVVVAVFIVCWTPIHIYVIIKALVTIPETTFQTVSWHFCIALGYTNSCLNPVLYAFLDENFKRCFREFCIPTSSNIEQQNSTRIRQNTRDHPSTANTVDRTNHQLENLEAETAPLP

COC(=O)[C@H]1OC(CC(=O)NC2C=CC3C4Cc5ccc(O)c6c5C3(CCN4C)C2O6)[C@H](OC(C)=O)[C@@H](OC(C)=O)[C@@H]1OC(C)=O (stereo in doubt) [compound 10, 6α-(Methyl 2′,3′,4′-tri-O-acetyl-β-D-glucopyranosyluronate)acetamido-morphine]
Emax (mu opioid receptor [1]; [5]): 104 ± 1.2%
EC50 (mu opioid receptor [1]; Table 2, read-out: mu EC50): 9.4 ± 3.2 nM

CC(=O)OC[C@H]1OC(SC2C=CC3C4Cc5ccc(OC(C)=O)c6c5C3(CCN4C)C2O6)[C@H](OC(C)=O)[C@@H](OC(C)=O)[C@@H]1OC(C)=O (stereo partly drawn) [3c, 3-O-Acetyl-6β-S-(2′,3′,4′,5′-tetra-O-acetyl-β-D-glucopyranosyl)-6β-thiomorphine]
Emax (mu opioid receptor [1]; [5]): 44.1 ± 4.9%
EC50 (mu opioid receptor [1]; Table 2, read-out: mu EC50): 4790 ± 1620 nM

CC(=O)OC[C@H]1OC(SC2C=CC3C4Cc5ccc(O)c6c5C3(CCN4C)C2O6)[C@H](OC(C)=O)[C@@H](OC(C)=O)[C@@H]1OC(C)=O (stereo partly drawn) [3d, 6-βS-(2′,3′,4′,5′-Tetra-O-acetyl-β-D-glucopyranosyl)-6β-thiomorphine]
mu % stimulation (mu opioid receptor [1]; [5]): 76.0 ± 3.0%
Emax (mu opioid receptor [1]; [5]): 76%
EC50 (mu opioid receptor [1]; Table 2, read-out: mu EC50): 33.7 ± 11.3 nM

COC(=O)[C@H]1OC(SC2C=CC3C4Cc5ccc(OC)c6c5C3(CCN4C)C2O6)[C@H](OC(C)=O)[C@@H](OC(C)=O)[C@@H]1OC(C)=O (stereo partly drawn) [3e, 6β-S-(Methyl-2′,3′,4′-tri-O-acetyl-β-D-glucopyranosyluronate)codeine]
Emax (mu opioid receptor [1]; [5]): 19.3 ± 0.3%
EC50 (mu opioid receptor [1]; Table 2, read-out: mu EC50): 732 ± 47.1 nM

COc1ccc2c3c1OC1C(SC4O[C@H](COC(C)=O)[C@@H](OC(C)=O)[C@H](OC(C)=O)[C@H]4OC(C)=O)C=CC4C(C2)N(C)CCC341 (stereo partly drawn) [3f, 6-S-(2′,3′,4′,5′-Tetra-O-acetyl-β-D-glucopyranosyl)6β-thiocodeine]
Emax (mu opioid receptor [1]; [5]): 41.9 ± 2.1%
EC50 (mu opioid receptor [1]; Table 2, read-out: mu EC50): 994 ± 13.3 nM

CN1CCC23c4c5ccc(O)c4OC2C(SC2O[C@H](C(=O)O)[C@@H](O)[C@H](O)[C@H]2O)C=CC3C1C5 (stereo partly drawn) [4a, Morphine-6β-S-D-glucuronide]
mu % stimulation (mu opioid receptor [1]; [5]): 46.6 ± 10.1%
Emax (mu opioid receptor [1]; [5]): 46.6%
EC50 (mu opioid receptor [1]; Table 2, read-out: mu EC50): 90.6 ± 22.9 nM
Receptor selectivity δ/μ (mu opioid receptor [2]): 3.6
Receptor selectivity κ/μ (mu opioid receptor [2]): 33
Ki (mu opioid receptor [2]): 8.7 ± 0.9 nM
μ Emax (mu opioid receptor [3]): 46.6 ± 10.1
efficacy (Emax) at the μ receptor (mu opioid receptor [3]): 46.6%

CN1CCC23c4c5ccc(O)c4OC2C(SC2O[C@H](CO)[C@@H](O)[C@H](O)[C@H]2O)C=CC3C1C5 (stereo partly drawn) [4b, 6β-Thiomorphine-6β-S-D-glucopyranoside]
mu % stimulation (mu opioid receptor [1]; [5]): 64.5 ± 0.5%
Emax (mu opioid receptor [1]; [5]): 64.5%
EC50 (mu opioid receptor [1]; Table 2, read-out: mu EC50): 91.5 ± 23.4 nM
Ki (mu opioid receptor [2]): 5.4 ± 0.8 nM
μ Emax (mu opioid receptor [3]): 64.5 ± 0.5

COc1ccc2c3c1OC1C(SC4O[C@H](C(=O)O)[C@@H](O)[C@H](O)[C@H]4O)C=CC4C(C2)N(C)CCC341 (stereo partly drawn) [4c, Codeine 6β-S-glucuronide]
mu EC50 (mu opioid receptor [1]; Table 2): flat
mu % stimulation (mu opioid receptor [1]; [5]): flat

COc1ccc2c3c1OC1C(SC4O[C@H](CO)[C@@H](O)[C@H](O)[C@H]4O)C=CC4C(C2)N(C)CCC341 (stereo partly drawn) [4d, 6β-Thiocodeine-6β-S-D-glucose]
Emax (mu opioid receptor [1]; [5]): 42 ± 6%
EC50 (mu opioid receptor [1]; Table 2, read-out: mu EC50): 1060 ± 22 nM

O=C(CC1OC(CO)C(O)C(O)C1O)NC1CCC2(O)C3Cc4ccc(O)c5c4C2(CCN3CC2CC2)C1O5 (stereo not drawn) [6a, 14-Hydroxy-17-(cyclopropylmethyl)nordesmorphine-6-acetamidoglucose]
Emax (mu opioid receptor [1]; Table 8): 15.8 ± 1.6%
EC50 (mu opioid receptor [1]; Table 8, read-out: mu EC50): 42.3 ± 5.4 nM
agonist/antagonist character at the mu receptor (mu opioid receptor [1]; based on [35S]GTPγS binding): strong antagonist

CN(C)c1cccc(C(=O)NC2CCC3(O)C4Cc5ccc(O)c6c5C3(CCN4CC3CC3)C2O6)c1 (stereo not drawn) [6c, 6-(3′-dimethylamino)benzamido-14-hydroxy-17-(cyclopropylmethyl)nordesmorphine]
Kb (mu opioid receptor [4]): 0.457 nM
EC50 (mu opioid receptor [1]): 4.6 ± 0.9 nM
Emax (mu opioid receptor [1]): 19.3 ± 0.1%

COc1cccc(C(=O)NC2CCC3(O)C4Cc5ccc(O)c6c5C3(CCN4CC3CC3)C2O6)c1 (stereo not drawn) [6d, 6-(3′-Methoxy)benzamido-14-hydroxy-17-(cyclopropylmethyl)nordesmorphine]
Emax (mu opioid receptor [1]; Table 8): 20.6 ± 1.5%
EC50 (mu opioid receptor [1]; Table 8, read-out: mu EC50): 1.2 ± 0.6 nM

O=C(Cc1cccs1)NC1CCC2(O)C3Cc4ccc(O)c5c4C2(CCN3CC2CC2)C1O5 (stereo not drawn) [6e, 6-(Thiophen-2′-yl)acetamidomido-14-hydroxy-17-(cyclopropylmethyl) nordesmorphine]
EC50 (mu opioid receptor [1]): 5.2 ± 1.6 nM
Emax (mu opioid receptor [1]): 16.1 ± 1.9%

COC(=O)[C@H]1OC(CC(=O)NC2C=CC3C4Cc5ccc(OC)c6c5C3(CCN4C)C2O6)[C@H](OC(C)=O)[C@@H](OC(C)=O)[C@@H]1OC(C)=O (stereo partly drawn) [9b]
Emax (mu opioid receptor [1]; [5]): 96.8 ± 8.22%
EC50 (mu opioid receptor [1]; Table 2, read-out: mu EC50): 83.9 ± 4.3 nM

CN1CCC23c4c5ccc(O)c4OC2C(NC(=O)CC2O[C@H](C(=O)O)[C@@H](O)[C@H](O)[C@H]2O)C=CC3C1C5 (stereo partly drawn) [11a, 6β-(α-Glucuronosyl)acetamidomorphine]
Emax (mu opioid receptor [1]; [5]): 44.5 ± 7.1%
EC50 (mu opioid receptor [1]; Table 2, read-out: mu EC50): 114 ± 5.55 nM

COc1ccc2c3c1OC1C(NC(=O)CC4O[C@H](C(=O)O)[C@@H](O)[C@H](O)[C@H]4O)C=CC4C(C2)N(C)CCC341 (stereo partly drawn) [11b]
Emax (mu opioid receptor [1]; [5]): 27.1 ± 3.4%
EC50 (mu opioid receptor [1]; Table 2, read-out: mu EC50): 672.3 ± 6.4 nM

COc1cccc(CC(=O)NC2C=CC3C4Cc5ccc(O)c6c5C3(CCN4C)C2O6)c1 (stereo not drawn) [13a, 6β-(3-Methoxyphenyl)acetamidomorphine]
Emax (mu opioid receptor [1]; [5]): 99 ± 4%
EC50 (mu opioid receptor [1]; Table 2, read-out: mu EC50): 1.7 ± 0.17 nM

COc1ccc(CC(=O)NC2C=CC3C4Cc5ccc(O)c6c5C3(CCN4C)C2O6)cc1 (stereo not drawn) [13b, 6β-(4-Methoxyphenyl)acetamidomorphine]
Emax (mu opioid receptor [1]; [5]): 72.5 ± 14.5%
EC50 (mu opioid receptor [1]; Table 2, read-out: mu EC50): 4.8 ± 2.05 nM

COc1cccc(C(=O)NC2C=CC3C4Cc5ccc(O)c6c5C3(CCN4C)C2O6)c1 (stereo not drawn) [13c, 6β-(3-Methoxy)benzamidomorphine]
Emax (mu opioid receptor [1]; [5]): 87.5 ± 6.5%
EC50 (mu opioid receptor [1]; Table 2, read-out: mu EC50): 2.8 ± 0.24 nM

CN1CCC23c4c5ccc(O)c4OC2C(NC(=O)c2ccccc2)C=CC3C1C5 (stereo not drawn) [13d, 60-Benzamidomorphine]
Emax (mu opioid receptor [1]; [5]): 90.5 ± 9.5%
EC50 (mu opioid receptor [1]; Table 2, read-out: mu EC50): 5.5 ± 0.9 nM

COC(=O)c1cccc(C(=O)NC2C=CC3C4Cc5ccc(O)c6c5C3(CCN4C)C2O6)c1 (stereo not drawn) [13e, 6β-(3′-Carbomethoxy)benzamidomorphine]
Emax (mu opioid receptor [1]; [5]): 98.1 ± 7.9%
agonist/antagonist character at the mu receptor (mu opioid receptor [1]; based on [35S]GTPγS binding): potent full agonist
EC50 (mu opioid receptor [1]; value, read-out: EC50 at μ, stimulation of [35S]GTPγS binding): 2.4 nM

CN1CCC23c4c5ccc(O)c4OC2C(NC(=O)c2cccc([N+](=O)[O-])c2)C=CC3C1C5 (stereo not drawn) [13f, 6β-(3′Nitro)benzamidomorphine]
Emax (mu opioid receptor [1]; [5]): 95.5 ± 7.5%
EC50 (mu opioid receptor [1]; Table 2, read-out: mu EC50): 1.9 ± 0.16 nM

CN1CCC23c4c5ccc(O)c4OC2C(NC(=O)c2ccc(Cl)c(Cl)c2)C=CC3C1C5 (stereo not drawn) [13g, 6β-(3′,4′-Dichloro)benzamidomorphine]
Emax (mu opioid receptor [1]; [5]): 95.5 ± 10.5%
EC50 (mu opioid receptor [1]; Table 2, read-out: mu EC50): 0.1 nM

CN1CCC23c4c5ccc(O)c4OC2C(NC(=O)Cc2cccs2)C=CC3C1C5 (stereo not drawn) [13h, 6β-(Thiophen-2′-yl)acetamidomorphine]
Emax (mu opioid receptor [1]; [5]): 95.8 ± 19.3%
EC50 (mu opioid receptor [1]; Table 2, read-out: mu EC50): 6 ± 2.1 nM

CN1CCC23c4c5ccc(O)c4OC2C(OC2O[C@H](C(=O)O)[C@@H](O)[C@H](O)[C@H]2O)C=CC3C1C5 (stereo partly drawn) [M6G, Morphine-6-glucuronide, reference compound]
EC50 (mu opioid receptor [1]): 72.3 ± 26.7 nM
Emax (mu opioid receptor [1]): 45 ± 5%
Receptor selectivity δ/μ (mu opioid receptor [2]): 12.5
Receptor selectivity κ/μ (mu opioid receptor [2]): 316
μ Emax (mu opioid receptor [3]): 45.0 ± 5.0
efficacy (Emax) at the μ receptor (mu opioid receptor [3]): 45%

O=C(C[C@@H]1O[C@H](COCc2ccccc2)[C@@H](OCc2ccccc2)[C@H](OCc2ccccc2)[C@H]1OCc1ccccc1)NC1CC[C@@]2(O)[C@H]3Cc4ccc(O)c5c4[C@@]2(CCN3CC2CC2)[C@H]1O5 (stereo partly drawn) [compound 5, 6-acetamido-2,3,4,6-tetra-O-benzyl-D-glucopyranosyl-14-Hydroxy-17-(cyclopropylmethyl)nordesmorphine]
Emax (mu opioid receptor [1]; Table 8): 21.4 ± 0.5%
EC50 (mu opioid receptor [1]; Table 8, read-out: mu EC50): 9.7 ± 0.5 nM

CN1CC[C@]23c4c5ccc(O)c4O[C@H]2[C@H](NC(=O)C[C@@H]2O[C@H](COCc4ccccc4)[C@@H](OCc4ccccc4)[C@H](OCc4ccccc4)[C@H]2OCc2ccccc2)C=C[C@H]3[C@H]1C5 [compound 11]
μ Emax (mu opioid receptor [1]; Table 6, Example 33): 36.0 ± 11.2
EC50 (mu opioid receptor [1]; Table 6, Example 33, read-out: μ EC50): 623 ± 9.2 nM
agonist/antagonist character at the mu receptor (mu opioid receptor [1]; based on [35S]GTPγS binding): partial agonist

CN1CCC23c4c5ccc(O)c4OC2C(NC(=O)c2cccc(C(=O)O)c2)C=CC3C1C5 (stereo not drawn) [compound 14, 6β-(3′Carboxy)benzamidomorphine]
Emax (mu opioid receptor [1]; [5]): 71 ± 8%
EC50 (mu opioid receptor [1]; Table 2, read-out: mu EC50): 65.1 ± 21.8 nM

Dihydromorphine-6-β-acetamidoglucose [compound 3]
agonist/antagonist character at the mu receptor (mu opioid receptor [1]): full agonist
efficacy (Emax) at the μ receptor (mu opioid receptor [1]): 75%
μ Emax (mu opioid receptor [1]): 75.2 ± 3.6
EC50 (mu opioid receptor [1]; read-out: μ EC50): 37.2 ± 0.5 nM
